# Measurements as given in PubChem BioAssay AID463173 (ICCB-Longwood Screening Facility, Harvard Medical School, 2010).
# Among all 52,000 compounds or so, about 1,700 (3.3%) were called active. No stated cut-off is given here; in the data, active means survival mostly below about 52% (no sharp cut-off); inactive means mostly above about 56%. The list shows a part of the results.
# Tested on: Wild type
# Assay: S. aureus survival, RN4220 and DeltatarO strains – OD600, teichoic acid synthesis inhibitors, primary screen (AID 463173)
# Conditions: S. aureus RN4220 wild type/DeltatarO growth, OD600, 18 h, hits give low values, screened at 18.75 µg/mL (by protocol)
row,Compound,survival
1,COc1ccc(S(=O)(=O)NCC(c2ccco2)S(=O)(=O)c2cccs2)cc1F (centres undefined),inactive: 75%
2,COc1ccc(NC(=O)CSc2nc(C)cc(C)c2C(=O)Nc2ccccc2OC)cc1,inactive: 81%
3,CCCn1c(=N)c(C(=O)NCC2CCCO2)cc2c(=O)n3cc(C)ccc3nc21 (centres undefined),inactive: 126%
4,Cc1cccc(-c2nc(SCc3cc(=O)c4c(C)cc(C)cc4[nH]3)n[nH]2)c1,inactive: 85%
5,COCCN(CCOC)S(=O)(=O)c1ccc(C(=O)Nc2sc3c(c2C(N)=O)CCCC3)cc1,inactive: 147%
6,COc1ccc(S(=O)(=O)N2CCC(c3nc4ccccc4s3)CC2)cc1OC,inactive: 88%
7,O=C(Cn1ncc2c3ccccc3n(Cc3ccccc3)c2c1=O)NCCc1ccc(Cl)cc1,inactive: 96%
8,O=C(Cn1nc2c(cc1=O)CCCC2)NCc1ccc(Cl)cc1,inactive: 82%
9,Cc1cccc(CSc2cn(CC(=O)N3CCOCC3)c3ccccc23)c1,inactive: 86%
10,CCCNC(=O)c1ccc2c(c1)N=C(CCC)c1ccccc1S2,inactive: 80%
11,COc1cccc(NC(=O)Cn2nc(N3CCN(c4ccccc4)CC3)ccc2=O)c1,inactive: 85%
12,Cc1ccc(Cl)cc1-n1ncc2c(NCCc3ccccc3)ncnc21,inactive: 75%
13,CCN(C(=O)CN1C(=O)c2ccccc2Sc2ccc(C(=O)OC)cc21)c1cccc(C)c1,inactive: 128%
14,Cc1ccc(OCC(=O)Nc2ccc(OCc3cc(=O)n4ccsc4n3)cc2)cc1C,inactive: 132%
15,CCC(=O)N1CCc2cc(S(=O)(=O)NC(Cc3ccccc3)C(=O)NCc3ccccc3)ccc21 (centres undefined),inactive: 84%
16,Cc1ccc(NC(=O)Cn2c(=O)n(Cc3nc(-c4ccccc4)no3)c(=O)c3ccccc32)c(C)c1,inactive: 72%
17,CCCCNc1nc2c(S(=O)(=O)c3ccc(Br)cc3)nnn2c2ccsc12,inactive: 91%
18,Cc1ccc(Nc2c(-c3ccccn3)nc3ccc(Br)cn23)cc1,inactive: 60%
19,CCC(=O)N1CCc2cc(Br)cc(S(=O)(=O)N3CCCC(C(=O)Nc4ccc(C)c(F)c4)C3)c21 (centres undefined),inactive: 99%
20,Cc1ccc2ccc3cc(C(=O)N4CCN(c5ccccc5F)CC4)nc3c2[nH]1,inactive: 78%
21,CC(CCc1ccccc1)NC(=O)CSc1n[nH]c(-c2ccccc2)n1 (centres undefined),inactive: 71%
22,CCCCNC(=O)CCC(=O)NNc1nc2ccccc2c2nc(C)nn12,inactive: 83%
23,COc1ccccc1NC(=O)c1c(-c2ccc(C)cc2)nnc2ccccc12,inactive: 119%

row,Compound,survival
1,Cc1ccc(C(=O)N(Cc2ccc(N(C)C)cc2)CC2CCCO2)cc1 (centres undefined),inactive: 83%
2,Cc1nn(C(C)C(=O)NCc2ccc(OC(C)C)cc2)c(=O)c2c1sc1ccccc12 (centres undefined),inactive: 105%
3,COc1ccc(N2CCN(C(=O)Nc3cn(CC(C)C)c(=O)c4ccccc34)CC2)cc1,inactive: 92%
4,O=C(NCc1cccs1)c1ccc2c(c1)sc1nc(-c3ccc(F)cc3)cn12,inactive: 90%
5,O=C(Nc1cc(Cl)ccc1Cl)c1ccc2c(c1)N(Cc1cccc(Cl)c1)C(=O)c1ccccc1S2=O (centres undefined),inactive: 128%
6,Cc1c(Cl)cccc1NC(=O)c1cc(-c2ccc3c(c2)OCO3)on1,inactive: 85%
7,COc1c(Cl)cc(C(=O)Nc2cc(-c3nc4ccccc4[nH]3)ccc2C)cc1Cl,inactive: 84%
8,Cc1nn(-c2ccccc2)c(OC(=O)c2ccccc2)c1S(=O)(=O)c1ccccc1,inactive: 55%
9,COc1ccc(-c2csc(C(C#N)=C3CCCC3)n2)cc1,inactive: 108%
10,Cc1ccc2oc(C(=O)Nc3c(C(=O)Nc4cccc(Cl)c4)oc4ccccc34)cc(=O)c2c1,inactive: 91%
11,Cc1ccccc1Cn1ccn(-c2ccc(F)c(F)c2)c(=O)c1=O,inactive: 86%
12,O=C(Nc1ccccc1C(F)(F)F)N1CCOc2ccc(Cl)cc21,inactive: 84%
13,Cc1ccc(N2C(=O)CS(=O)(=O)C23C(=O)Nc2ccccc23)cc1C (centres undefined),inactive: 71%
14,CCOC(=O)CSc1nc2ccccc2c(=O)n1-c1ccc(C(=O)NCCOC)cc1,inactive: 80%
15,Nc1nc(SCc2cccc3ccccc23)n[nH]1,inactive: 98%
16,CCOc1ccccc1-c1noc(CSc2nnc(-c3ccccc3)n2-c2ccc(OC)cc2)n1,inactive: 75%
17,CCOC(=O)N1CCC(NC(=O)c2ccc3c(c2)N(Cc2ccccc2C)C(=O)c2ccccc2S3=O)CC1 (centres undefined),inactive: 80%
18,CC(C)c1ccc(C2CC(=O)Nc3cc4c(cc32)OCCO4)cc1 (centres undefined),inactive: 71%
19,CN(Cc1nc(-c2ccc(Cl)cc2)no1)S(=O)(=O)c1ccccc1,inactive: 82%
20,CCc1ccc(NC(=O)Cn2nnc(-c3ccccc3N)n2)cc1,inactive: 103%
21,COc1ccc(S(=O)(=O)N(CC(=O)NC(C)c2ccccc2)c2ccc(C)cc2)cc1OC (centres undefined),inactive: 86%
22,COc1ccc(N2CCN(CCCNC(=O)c3c(C)nn(-c4ccc(F)cc4)c3-n3cccc3)CC2)cc1,inactive: 78%
23,O=C(CCC(=O)NC1CCN(Cc2ccccc2)CC1)NCc1ccco1,inactive: 96%

row,Compound,survival
1,CCOC(=O)N1CCc2c(sc3c2c(=O)n(-c2ccc(CC)cc2)c(=O)n3Cc2ccc(F)cc2Cl)C1,inactive: 94%
2,COc1ccccc1N1CCN(C(=O)c2cc3c(=O)n(Cc4cccs4)ccc3nc2C)CC1,inactive: 88%
3,Cc1ccc(-n2ncc3c(NCCCn4ccnc4)ncnc32)cc1C,inactive: 66%
4,CCOC(=O)c1c(NC(=O)Cc2coc3ccc(CC)cc23)sc2c1CCC2,inactive: 81%
5,CCOc1ccc2nc(N3CCCC(C(=O)NCCc4ccc(Cl)cc4)C3)sc2c1 (centres undefined),inactive: 71%
6,CCOc1ccc(NC(=O)Cn2nc(Cc3cccnc3)c3ccccc3c2=O)cc1,inactive: 72%
7,COc1ccccc1NC(=O)N1CCN(c2ccc3nnc(-c4ccc(F)cc4)n3n2)CC1,inactive: 75%
8,CC(C)C(=O)Nc1nnc(S(=O)(=O)N2CCc3ccccc32)s1,inactive: 79%
9,Cc1cccc(N2CCN(c3ccc4cc(S(=O)(=O)N5CCC(C)CC5)ccc4n3)CC2)c1C,inactive: 87%
10,CC1(C)Oc2ccc(NC(=O)c3ccco3)cc2O1,inactive: 106%
11,CCOC(=O)c1c(C)oc2ncnc(Nc3cccc(C(F)(F)F)c3)c12,inactive: 88%
12,CCc1ccc(NC(=O)CC(NCc2cccnc2)C(=O)O)cc1 (centres undefined),inactive: 74%
13,O=c1oc2ccccc2cc1-c1cn2cc(Cc3ccc(F)cc3)sc2n1,inactive: 133%
14,Cc1ccc(OCC(=O)Nc2ccc(OCc3cc(=O)n4c(C)csc4n3)cc2)cc1C,inactive: 137%
15,Cc1ccc(Cn2ccnc2SCC(=O)NCc2ccccc2)cc1,inactive: 72%
16,CCOc1ccccc1Nc1sc(C(=O)c2ccccc2)c(N)c1C(=O)Nc1ccc(F)cc1,inactive: 80%
17,CCOC(=O)c1cccc(NC(=O)Cn2ncc3c(=O)oc4ccccc4c32)c1,inactive: 84%
18,COc1ccc(CNC(=O)C(=O)NCC(c2ccco2)S(=O)(=O)c2ccc(Cl)cc2)cc1 (centres undefined),inactive: 133%
19,Cn1c(=O)c2c(nc(SCC(=O)Nc3ccccc3F)n2Cc2ccccc2F)n(C)c1=O,inactive: 93%
20,CSc1ccc(CCNC(=O)Cn2nc(C)n3c(cc4sccc43)c2=O)cc1,inactive: 92%
21,Cc1nc(-c2ccc(Cl)cc2)sc1CCNC(=O)C(=O)Nc1ccc2c(c1)OCO2,inactive: 74%
22,Cc1ccc(NC(=O)c2ccc3c(c2)NC(=O)c2ccccc2S3)c(Cl)c1,inactive: 97%
23,Cc1nn(CC(=O)NC2CC2)c(=O)c2cc3cc(F)ccc3n12,inactive: 82%

row,Compound,survival
1,COc1cc(C2CC(=O)Nc3cc4c(cc32)OCO4)cc(OC)c1O (centres undefined),inactive: 84%
2,Cc1c(C)n(Cc2ccc(Cl)cc2)c2ccc(C(=O)N3CCN(c4ccccc4F)CC3)cc12,inactive: 81%
3,COc1cccc(NC(=O)Cn2c(=O)oc3cc(S(=O)(=O)N4CCCCC4)ccc32)c1,inactive: 140%
4,Cc1ccc(C(=O)c2oc3ccccc3c2NC(=O)COc2ccc(Cl)c(C)c2)cc1,inactive: 73%
5,COc1ccc(OC)c(CCNC(=O)c2nc(-c3ccc(Cl)cc3)n3c2CCCCC3)c1,inactive: 83%
6,O=S(=O)(NC1CCCC1)c1cccc(S(=O)(=O)N2CCCCC2)c1,inactive: 104%
7,CC(C)COc1ccc(C(=O)N2CCCCC2CCN2CCOCC2)cc1 (centres undefined),inactive: 86%
8,CSc1nn(Cc2ccc(F)cc2)c(N(C(C)=O)C(C)=O)c1S(=O)(=O)c1ccccc1,inactive: 59%
9,CCc1cccc(CC)c1NC(=O)CN(C)S(=O)(=O)c1ccc2c(c1)n(C)c(=O)c(=O)n2C,inactive: 81%
10,COc1cc2nc(C3CCC3)n(NC(=O)c3ccco3)c(=O)c2cc1OC,inactive: 88%
11,CCCCN(C(=O)c1cccs1)c1nnc(-c2cc(OC)cc(OC)c2)s1,inactive: 116%
12,COc1cccc(CNC(=O)C2CCCN(c3nnc(-n4c(C)ccc4C)s3)C2)c1OC (centres undefined),inactive: 85%
13,CC(=O)Nc1c(C(=O)c2ccc(F)cc2)oc2ccccc12,inactive: 102%
14,Cc1ccc(C(=O)CSc2nc(C)cc(C)c2C(=O)Nc2cccc(C)c2)cc1,inactive: 84%
15,Cc1ccc2nc(COc3ccccc3NC(=O)Nc3ccc(F)c(Cl)c3)cc(=O)n2c1,inactive: 75%
16,Cc1cccc(NC(=O)CSc2cn(CC(=O)N3CCOCC3)c3ccccc23)c1C,inactive: 89%
17,CCSc1nc(-c2ccc(OC)cc2)nc2c1Cc1c(CO)cnc(C)c1O2,inactive: 82%
18,Nc1ccc2nc(CO)[nH]c2c1,inactive: 106%
19,CC(=O)N1CCCc2ccc(NC(=O)c3ccc(OC(C)C)cc3)cc21,inactive: 86%
20,Cc1nc2c3ccccc3nc(NNC(=O)CCC(=O)N3CCN(c4ccc(F)cc4)CC3)n2n1,inactive: 87%
